From PubChem BioAssay AID1645887 (National Center for Advancing Translational Sciences (NCATS), 2021)
“And” between values parts separate entries of the source, which are not always exact repeats. Equal entries are not always repeated. The campaign covered roughly 16,000 compounds. About 40 (0.2%) were called active. Another 1% or so got no clear call; they are omitted. Calls come from the whole dose curve; as a rule, active = well fitted activation curve with a large enough effect; inconclusive = small, poorly fitted or top-dose-only effect, or another doubt; inactive = no such curve, though single readings can be large or run the other way. This is one part of the list.

Each compound was assayed against Rap guanine nucleotide exchange factor 4 (Homo sapiens) (UniProt Q8WZA2) (assay: Validation qHTS for agonist of cAMP-regulated guanine nucleotide exchange factor 4 (EPAC2)). Conditions: EPAC2 Rap1B BODIPY-GDP exchange, fluorescence; activation: stronger effect = higher value.
Sequence of UniProt Q8WZA2 (Q8WZA2 whole entry, looked up): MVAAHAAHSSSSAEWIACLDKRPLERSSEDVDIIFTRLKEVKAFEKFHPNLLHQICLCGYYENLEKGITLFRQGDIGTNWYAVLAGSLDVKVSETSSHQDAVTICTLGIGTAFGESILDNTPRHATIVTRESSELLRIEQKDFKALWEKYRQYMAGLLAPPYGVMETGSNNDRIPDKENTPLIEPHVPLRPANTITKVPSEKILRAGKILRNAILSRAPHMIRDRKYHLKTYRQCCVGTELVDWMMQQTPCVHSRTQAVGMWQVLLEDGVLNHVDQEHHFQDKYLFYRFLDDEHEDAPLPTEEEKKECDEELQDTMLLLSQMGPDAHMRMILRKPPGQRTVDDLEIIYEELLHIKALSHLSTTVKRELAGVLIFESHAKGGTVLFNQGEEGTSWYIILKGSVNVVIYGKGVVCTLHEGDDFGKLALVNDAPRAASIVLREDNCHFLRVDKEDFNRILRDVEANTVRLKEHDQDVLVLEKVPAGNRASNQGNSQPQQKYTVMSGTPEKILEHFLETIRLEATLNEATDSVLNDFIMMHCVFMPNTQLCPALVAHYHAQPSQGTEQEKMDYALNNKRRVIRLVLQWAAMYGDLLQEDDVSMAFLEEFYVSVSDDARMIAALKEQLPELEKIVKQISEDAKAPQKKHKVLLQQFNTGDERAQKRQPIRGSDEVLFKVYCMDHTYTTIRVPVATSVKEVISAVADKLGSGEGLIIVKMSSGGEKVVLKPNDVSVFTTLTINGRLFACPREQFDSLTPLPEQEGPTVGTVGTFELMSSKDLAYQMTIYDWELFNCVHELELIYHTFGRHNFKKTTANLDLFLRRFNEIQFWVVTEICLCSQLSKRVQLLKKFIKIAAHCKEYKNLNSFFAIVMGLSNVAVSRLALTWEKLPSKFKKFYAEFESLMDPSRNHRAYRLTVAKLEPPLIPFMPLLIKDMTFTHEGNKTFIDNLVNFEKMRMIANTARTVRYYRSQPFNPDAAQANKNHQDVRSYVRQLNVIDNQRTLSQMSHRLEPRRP
Outline: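 Signal normalized against 6.5 mM cAMP as agonist control. Mix of EPAC2 (100 nM), RAP1B-BODIPY-GDP (250 nM) and GDP (50 uM) was read kinetically at 480/540 nm, every 5 min over 30 min, after 5 min room-temperature incubation with compound.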
% is set by controls: 0 for no effect and ±100 for the full control effect.
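Note: exchange makes BODIPY-GDP fluorescence drop when released from Rap1B; series mostly up to about 150 µM.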

activation, inactive:
COc1cccc(-c2nc(NCCc3c[nH]c4ccc(OC)cc34)c3ccccc3n2)c1 6.97%
C[N+]1(C)CCC(OC(=O)C(c2ccccc2)c2ccccc2)CC1 -17.5% and 2.33% and -24.8%
O=C1CC(c2ccccc2O)Oc2ccc(O)cc21 (configuration not stated) 4.28%
C#C[C@]1(O)CC[C@H]2[C@@H]3CCC4=C/C(=N/O)CC[C@@H]4[C@H]3CC[C@@]21CC 3.57%
Cc1c(-c2ccccc2)oc2cc(O)ccc2c1=O 2.61%
CN(C)Cc1ccccc1-c1ccc2ncnc(NC3CCNCC3)c2c1 -6.12%
CC(C)CN1CC[C@@]2(CCCN(C(=O)c3cccc(F)c3)C2)C1 -15.1%
COCCN(C)C(=O)c1cnn(-c2ncc3c(n2)-c2ccccc2CC3)c1C -14.3%
CCCCC(O)c1ccccc1 (configuration not stated) -5.31%
Oc1ccccc1 14.1%
CCCCOCCOCCOCc1cc2c(cc1CCC)OCO2 -16.8% and -17.7%
O=c1cc(-c2ccccc2)oc2c(O)c(O)ccc12 -13.4%
CCN(CC)CCOC(=O)C1(C2CCCCC2)CCCCC1 -1.9% and -1.5% and -13.4%
COc1ccc(Oc2ncc3nc(-c4ccc(Cl)cc4)c(=O)n(C4CC4)c3n2)cc1 -6.17%
Cc1noc(C)c1-c1nc(NC2CC2)c2ccccc2n1 -24.7%
COc1nccc(-c2c(-c3ccc(F)cc3)ncn2C2CCC(O)CC2)n1 (configuration not stated) -7.78%
COCCCCC(=NOCCN)c1ccc(C(F)(F)F)cc1 -12.8% and -21%
CCNc1ncc2nc(-c3ccc(Cl)cc3)c(=O)n(Cc3cccc(OC)c3)c2n1 8.9%
c1ncc(-c2ccoc2)c(NC2CC2)n1 -1.7%
COc1ccccc1C(=O)N[C@@H]1c2ccccc2C2(CCN(Cc3ccc4c(c3)OCO4)CC2)[C@H]1O -7.27%
OCCNCCCOc1cccc(Cl)c1Cl -3.05%
O=C(Nc1ccc(Cl)cc1)Nc1ccc(Cl)c(Cl)c1 2.17%
Cn1c(=O)c(-c2ccc(Cl)cc2)nc2cnc(Oc3ccccc3)nc21 -6.28%
CCNc1ncc2nc(CCc3ccccc3)c(=O)n(CCC#N)c2n1 -29.2%
O=C(Nc1cccc(F)c1)N1CC2(CCN(C(=O)c3ccncc3)CC2)C1 -11%
O=C1c2c(O)cccc2Cc2cccc(O)c21 0.232% and 3.88%
COc1ccc2[nH]c(=O)c3c(c2c1)OC(C)(C)C=C3 -12.2% and -26.6%
COc1cc2nc(C#Cc3nc4cc(OC)c(OC)cc4[nH]3)[nH]c2cc1OC -18.5%
CN(C)c1ccc(/C=c2\[nH]c(=O)/c(=C\c3ccc(N(C)C)cc3)[nH]c2=O)cc1 -18.1%
CC(C)C[C@@H](N)C(=O)O -8.96%
C#CC(N)CCC(=O)O (configuration not stated) -29.1%
N[C@H](CCCP(=O)(O)O)C(=O)O -12.2% and -10.3%
O=c1c(-c2ccc(O)cc2)coc2c(C3OC(CO)C(O)C(O)C3O)c(O)ccc12 (configuration not stated) -11.6%
O=S(=O)(O)c1cc(N=C=S)ccc1/C=C/c1ccc(N=C=S)cc1S(=O)(=O)O -13.8%
COc1ccc(CN2[C@@H](CC(C)=O)c3ccc(/C=C/C(C)=O)cc3S2(=O)=O)cc1 -20.2%
CN(C)c1ccc(-c2nc(Nc3ccncc3)c3ccccc3n2)cc1 -5.29%
CCNc1ncc2nc(-c3cccc(C#N)c3)c(=O)n(C)c2n1 1.94%
COc1ccc(-n2c(=O)c(-c3cc(F)cc(F)c3)nc3cnc(N(C)C)nc32)cc1 -8.8%
COc1cc(C(=O)OCCCN2CCCN(CCCOC(=O)c3cc(OC)c(OC)c(OC)c3)CC2)cc(OC)c1OC -2.18% and -19.1% and -37.4%
COC(=O)C1=C(C)NC(C)=C([N+](=O)[O-])C1c1ccccc1C(F)(F)F (configuration not stated) -19% and -22.6% and -30.4%
CC(C)c1c(C(=O)N(C)Cc2cccc3ncccc23)cnn1-c1nccc(-c2ccco2)n1 -26.4%
C[C@@H]1CN(Cc2ccc3c(c2)CN(C(=O)c2ccc(Oc4ccccc4)o2)CCO3)C[C@H](C)O1 -7.46%
O=C(O)C[C@H]1c2ccc(C(F)(F)F)cc2S(=O)(=O)N1Cc1ccccc1 -15.6%
Cc1ccc(C(C)(C)c2ccc(C)cc2)cc1 4.24%
COc1ccc(Oc2ncc3nc(-c4ccccc4)c(=O)n(Cc4cccs4)c3n2)cc1 3.04%
CCC1CN(CCNC(=O)c2cscn2)Cc2cc(OC)ccc2O1 (configuration not stated) -0.879%
CC[N+](C)(CC)CCOC(=O)C(O)(c1ccccc1)C1CCCCC1 (configuration not stated) -7.12%
C(=Nc1cnc2ccccc2c1)c1ccc2ccccc2n1 -19.1%
CC1(C)CC(C(=O)N2CCOc3ccc(CN4CCN(Cc5ccccn5)CC4)cc3C2)CCO1 (configuration not stated) -5.25%
CC(C)(CNC(=O)c1cnn(-c2nccc(-c3ccccc3F)n2)c1C1CC1)N1CCOCC1 -17.8%
O=C(C[n+]1ccc2ccccc2c1)c1ccc(F)cc1 -12.8%
COc1ccc2c(c1)CCC1C2CC[C@@]2(C)C1CC[C@@H]2NCCCCCCN1C(=O)CCC1=O (some centres not stated) -25.4%
Nc1ccc(/C=C/c2ccc3ncccc3c2)cc1 -14.6%
CC(=O)[C@]1(O)CCC2C3CC(C)C4=CC(=O)C=CC4(C)[C@@]3(F)C(O)C[C@]21C (some centres not stated) 16.4%
CS(=O)(=O)N1CCC2(CC1)CN(c1ccc(-c3ccccc3)cc1)C2 -13%
COC(=O)C1CCCCN1Cc1ccc2c(c1)CN(C(=O)c1ccc(C)s1)CCO2 (configuration not stated) 2.57%
O=C(c1ccco1)N1CCC2(CCN(Cc3ccncc3)CC2)CC1 -5.46%
OCCN1CCN(CC/C=C2/c3ccccc3Sc3ccc(C(F)(F)F)cc32)CC1 -14.9% and -34%
CCNc1ncc2ncc(=O)n(Cc3cccc(OC)c3)c2n1 3.85%
COc1c(-c2coc3cc4c(cc3c2=O)CC(O)C(C)(C)O4)ccc2c1C=CC(C)(C)O2 (configuration not stated) -14%
C[C@@H](O)[C@H]1C(=O)N2C(C(=O)O)=C([C@H]3CCCO3)S[C@H]12 0.331%
COc1cccc(Nc2ncc3ncc(=O)n(C4CC4)c3n2)c1 -1.21%
NC(N)=NS(=O)(=O)c1ccc(N)cc1 -7.73% and -12%
COc1ccccc1-c1cncnc1NCc1cccc(C)c1 -14%
O=C(c1cccc(F)c1)N1CCC2(CCN(Cc3nccs3)CC2)CC1 -18.3%
Cc1cn[nH]c1 9.24% and -20.9%
COc1ccc(CN2CCCC(Cn3cc(C(=O)N4CCCC4)nn3)C2)c(O)c1 (configuration not stated) -14.3%
Cc1cnc(SCC2CCCO2)nc1C1CCCN(Cc2nc(-c3ccccc3)cs2)C1 (configuration not stated) 2.73%
O=C(c1cnccn1)N1CCC[C@@]2(CCN(c3ccccc3)C2)C1 1.28%
O=C(c1cccc(F)c1)N1CCC2(CC1)CN(c1ccccn1)C2 2.61%
O=C[C@H](O)[C@@H](O)[C@H](O)[C@H](O)CO -8.88%
CC1(C)OC2CC3C4CCC5=CC(=O)C=C[C@@]5(C)[C@]4(F)C(O)C[C@@]3(C)[C@]2(C(=O)CO)O1 (some centres not stated) 5.25%
COc1ccc(-n2c(=O)c(-c3cc(F)cc(F)c3)nc3cnc(N4CCOCC4)nc32)cc1 13.1%
OC(Cn1cncn1)(Cn1cncn1)c1ccc(F)cc1F -29.1%
NC(=O)[C@@H]1CCCN1C(=O)c1cc(NC(=O)c2ccccc2)cc2ncn(C3CCCC3)c12 1.72%
FC(F)(F)c1ccccc1-c1nccc(N2CCNCC2)n1 -3%
CCCN1CCN(C(=O)c2cnn(-c3ncc4c(n3)-c3ccccc3CCC4)c2COC)CC1 -6.81%
CN1C(CC(=O)c2ccccc2)CCCC1CC(O)c1ccccc1 (configuration not stated) 15.3%
Cc1cccc(CNc2ncncc2-c2ccccc2CN(C)C)c1 -6.15%
O=c1c(-c2ccccc2)nc2cncnc2n1Cc1ccccc1Cl -21%
COc1ccc(OC)c(/C=C/c2ccnc3ccccc23)c1 -12.1%
CC[N+](C)(C)c1cccc(O)c1 6.99% and -10.7% and -45.6%
COc1cc(OC)c2nc(-c3cc4c(c(OC)c3)OCCN(C(=O)C(C)c3n[nH]c(=O)c5ccccc35)C4)cc(C)c2c1 (configuration not stated) -3.45%
COc1ccccc1CCn1c(=O)c(-c2cccc(Cl)c2)nc2cncnc21 -18.5%
CC(=O)N1CCC2(CCCN(c3ccncc3)C2)CC1 3.77%
CN(C)Cc1ccccc1-c1cncnc1NCc1cccnc1 -0.38%
N[C@@H](C(=O)O)[C@@H](CC(=O)O)c1ccc(Cl)cc1 6.37%
